The labels stand for the following.
B1: OR4K15 (parent)
chain: GUUAACGGUCAUAGGCCAUGGAAACUAGGAGCACCAUUUCGCUGCCAGUGAAGAAAUGAACAAAGAAAAUCUGGGCCAGGCAGGCAUCAAAAGAAAUAGUCUUGCGCUCAACCAGAAAGUCUGUAAUCAUUUUAAGGGUA

Read counts are not given, so values of variants with three or more changes are uncertain.

In the data set the parent is B1. In words: self-cleavage, relative activity (ratio to wild type); higher = more cleavage; in vitro, sequencing; the parent is a self-cleaving ribozyme.
In the case of A51G U57C U124G, the self-cleavage was determined as 0.34.

As to G53A A63G G75C G79U A118G, the self-cleavage was determined as 0.05.

For the variant A52G A92G U100A, the self-cleavage stood at 0.53.

As to A54G A56G U108G A118G, the self-cleavage was 0.06.

For the variant A52G A89C A98G, the self-cleavage amounted to 0.15.

Regarding A52G A56G A59G, the self-cleavage was 0.76.

In the case of A52G A59G U127A, the self-cleavage amounted to 1.15.

Regarding A52G A98G G104U, the self-cleavage was 0.01.

For A52G A59G U108C, the self-cleavage came to 0.

With A52G A62G A92G U122C, the self-cleavage came to 0.48.

On to A52G A63G A78G U108C U131C, for which the self-cleavage was 0.01.

As to A51U A90G A110G, the self-cleavage turned out to be 0.14.

For the variant A52G A69U A116U, the self-cleavage was found to be 0.08.

Consider A51G A67G A94G A110C, for which the self-cleavage amounted to 0.5.

As to A51G A68G A86G, the self-cleavage was found to be 1.08.

A52U A60G U120C U139C: the self-cleavage was 0.73.

With G53U U102A A110G, the self-cleavage amounted to 0.02.

In the case of A51G A86G A117G, the self-cleavage worked out at 1.63.

Turning to A51G A91G U108C, the self-cleavage was 0.02.

In the case of A54C A78U A86G, the self-cleavage is 0.11.

Turning to A51G G80A A91U G104A, the self-cleavage turned out to be 0.02.

Regarding A52G A60G U127C, the self-cleavage is 0.81.

As to A52G A78G A89G U108C, the self-cleavage came to 0.02.

As for A51C A69G A117U, the self-cleavage is 0.88.

In the case of A54C A68G A89G, the self-cleavage was found to be 1.36.

Take A52G A62U C107G: the self-cleavage was 0.01.

Turning to A51G U100A U122C, the self-cleavage worked out at 0.66.

For the variant A54G A68G U72C U122A, the self-cleavage came to 0.11.

On to A52G A59G A60U, for which the self-cleavage turned out to be 0.14.

As for A52G U100A U102C U108A, the self-cleavage came out at 0.01.

On to A51G A62U A96G, for which the self-cleavage was found to be 1.98.

As for A51G C101A A118G, the self-cleavage is 0.07.

For the variant A54G A82G A94U, the self-cleavage is 0.17.

In the case of A52G A59G A94U, the self-cleavage turned out to be 0.73.

On to A51U A78C U131C, for which the self-cleavage stood at 0.19.

In the case of A51G A68G U70C A134U, the self-cleavage was 0.61.

As to A52G C81U A96U U103C, the self-cleavage was 0.19.

A51G A60G A94G A117G A118G: the self-cleavage stood at 1.44.

For A51U A95U C128A U132C, the self-cleavage is 1.82.

On to A51G U72C U102C, for which the self-cleavage worked out at 0.2.

As to A52G A111G U131C, the self-cleavage stood at 0.02.

For A54G A66G G74A U108C U132C, the self-cleavage was determined as 0.02.

Regarding A54G A66G U87C, the self-cleavage came out at 0.92.

As for A52G A69G U87A A126G, the self-cleavage amounted to 0.39.

Turning to A51G A96G U120C, the self-cleavage worked out at 0.95.

Turning to A52G A110U A134G, the self-cleavage was 1.06.

As for A52G A54G A66G U72C U87C, the self-cleavage amounted to 0.

For A54G A82G C107U, the self-cleavage is 0.02.

Regarding A51U A55G A114G, the self-cleavage worked out at 0.88.

Regarding A51G A54U U72C, the self-cleavage was found to be 0.34.

A52G A62U U108C: the self-cleavage is 0.03.

As to A52G A67G U131C, the self-cleavage is 1.91.

As for A52G U100A U132C, the self-cleavage was determined as 0.51.

Consider A51G A54G U102A, for which the self-cleavage turned out to be 1.58.

Take A51G A59G A66G U97C A118G: the self-cleavage amounted to 0.3.

For A51G A59G A78U U87C U102A A140G, the self-cleavage was 0.1.

Consider A52G A68G U108C, for which the self-cleavage was 0.01.

Take A51G U57C U97A: the self-cleavage was determined as 1.14.

For A51G A56G U100C, the self-cleavage was 2.76.

In the case of A52G A94G A111G A117G, the self-cleavage was 0.01.

For the variant A52G A91G A118G, the self-cleavage was determined as 1.44.

In the case of A52G A59U U132C, the self-cleavage came to 1.45.

In the case of A51G A63G G83A A91G, the self-cleavage worked out at 1.88.

A52G A64G A86G A125G: the self-cleavage was determined as 0.3.

As to A52G A54G U87A U120C, the self-cleavage amounted to 1.16.

For A52G A78G G119A, the self-cleavage is 0.34.

A52G A54G U100C: the self-cleavage was 2.03.

Regarding A51G U131C G136A, the self-cleavage stood at 0.97.

In the case of A51U A63G A95G U108C, the self-cleavage is 0.

Turning to A52G A78G A90G A118U, the self-cleavage stood at 0.2.

With A54G A59U C76A G138A, the self-cleavage stood at 0.09.

In the case of A52U A55G A82U A95G U102A G106A, the self-cleavage amounted to 0.01.

As to A52U A82C U120C, the self-cleavage was found to be 0.09.

In the case of A51G A52G A95G A111G A116G U139A, the self-cleavage was determined as 0.03.

For A54G A91U A95G, the self-cleavage stood at 0.89.

Turning to A51G A54C A60G A118U U122C A125G, the self-cleavage stood at 0.39.

In the case of A52G A78G U102C, the self-cleavage stood at 0.47.

On to A52G G74U U102C, for which the self-cleavage was found to be 0.21.

With A52G A92G A140G, the self-cleavage amounted to 0.28.

For the variant G50U A126G U139G, the self-cleavage was 1.31.

As to A52G A62G A68G U97A U122C, the self-cleavage was 0.82.

For A54G A90C A94G, the self-cleavage stood at 2.13.

Turning to A52G A66G A111G A114G U132C, the self-cleavage was 0.

For the variant A52G A63G G123A, the self-cleavage was 1.28.

For the variant A51G U57C A114G A135G, the self-cleavage was determined as 0.52.

Regarding A51G A86U U87C A89G, the self-cleavage worked out at 0.85.

With A54G A69U A114U, the self-cleavage amounted to 0.13.

On to A52G A68G A89U, for which the self-cleavage amounted to 1.81.

For A52G A69G U120G, the self-cleavage came to 1.06.

On to A54G A63U U120C A135G, for which the self-cleavage is 0.78.

Turning to A52G A55G A56G U70C C76U A135U, the self-cleavage worked out at 0.1.

As to A51G U87C A118G, the self-cleavage came out at 1.23.

As to A52G A55G U72C G80A A114G, the self-cleavage came out at 0.29.

Take A51G U103C A111G U124C: the self-cleavage was 0.01.

Consider A52G U108C U124C, for which the self-cleavage came out at 0.

As to A51G A60G C109U A129G, the self-cleavage came out at 0.13.

On to A51G A90G U120A U131C, for which the self-cleavage was determined as 0.36.

Take A52G U120C U130C: the self-cleavage was 0.73.

Regarding A54G A89G U133C, the self-cleavage came out at 1.55.

For the variant G53A A60G A82G, the self-cleavage is 0.61.

On to A52U A68G A114G, for which the self-cleavage is 0.81.

A54G A90G A96U: the self-cleavage was found to be 1.48.

On to G53A U100C U103G, for which the self-cleavage was determined as 0.02.

A52G A91G U102C: the self-cleavage came to 2.12.

With A51G A52G A96U U124A, the self-cleavage stood at 0.96.

On to A51G U102C A110G, for which the self-cleavage worked out at 0.26.

Take A52G A60U A117G: the self-cleavage amounted to 1.28.

On to A52U U87C A94G, for which the self-cleavage was 0.93.

With A54G A55G U108C, the self-cleavage turned out to be 0.02.

With A52G A111G U122G, the self-cleavage worked out at 0.06.

As for A51G A59U C88A A116U, the self-cleavage was 0.1.

On to A52U A67G A118G U139C A140G, for which the self-cleavage was 1.31.

Regarding A52G A98G U127C, the self-cleavage stood at 0.34.

As to A54G A67G A94G A114G, the self-cleavage turned out to be 0.56.

Take A52U U70C A96G U122C: the self-cleavage was determined as 0.6.

As for A52U A68G A110G, the self-cleavage was 0.1.

A52U A54G A110G: the self-cleavage was 0.28.

For the variant A52G A54G U133C A134G, the self-cleavage came out at 0.91.

For the variant A54G A66G A90G, the self-cleavage was found to be 0.8.

Take A51G C71U U122C: the self-cleavage is 0.24.

With A52C U72C U102C, the self-cleavage was determined as 0.25.

As to A52U C77A A89U A96G, the self-cleavage was 0.77.

Turning to A52G U131C U139C, the self-cleavage came out at 0.35.

A54G A91G A110C: the self-cleavage was 0.28.

Take A52U A64G A110U: the self-cleavage is 0.44.

For A54G A63G U133C, the self-cleavage turned out to be 1.85.

For the variant A52U U87C U100C, the self-cleavage was 2.34.

A51G A69G U120C: the self-cleavage was determined as 0.89.

As for A51G A82G U102A, the self-cleavage was determined as 0.11.

Consider A51G G58A A68U A94G G123A, for which the self-cleavage came out at 0.65.

For the variant A54G A60G G80A U108C U120C, the self-cleavage worked out at 0.01.

Take A52G A59U A68U: the self-cleavage worked out at 1.78.

Regarding A54G A59G A90G, the self-cleavage was found to be 0.77.

Turning to A52G A59G A89G, the self-cleavage is 1.25.

For the variant A52U U72A G93A A126G, the self-cleavage turned out to be 0.29.

With A51G A64G U70C U97C, the self-cleavage amounted to 0.45.

Take A54G A91U U100G: the self-cleavage was 1.77.

Consider A52G A60G A68G A96G U102A C109U, for which the self-cleavage came to 0.09.

In the case of A51U A62G A118C, the self-cleavage was 1.38.

On to A54G A59U A114G, for which the self-cleavage is 0.11.

A54G A69C U108C: the self-cleavage was determined as 0.01.

Take A51U A62G A67G: the self-cleavage came out at 1.91.

For G53U A64G A118G U122C A125G, the self-cleavage was 0.85.

With A51G A86G U87A A90U U100C U108C A116G, the self-cleavage turned out to be 0.

A52G U70G A98G A126G: the self-cleavage worked out at 0.1.

For A52G A54U A60G, the self-cleavage amounted to 0.69.

With A52G A68G A82U, the self-cleavage came to 0.16.

A52G A92G A114G: the self-cleavage is 0.15.

For the variant A51G A82G A95G, the self-cleavage is 0.69.

Regarding G50U A111G A117G, the self-cleavage stood at 0.01.

Regarding A51G A67G A95C, the self-cleavage came to 0.85.

Consider A51G A56G A94G A114U A135G, for which the self-cleavage was found to be 0.03.

For A51G U57C A118G, the self-cleavage was determined as 0.53.

Regarding A51U A55U U87C, the self-cleavage is 1.25.

With A51U A66U A86U U87C U124A, the self-cleavage was determined as 0.23.

A51G A63G A68G: the self-cleavage turned out to be 1.62.

As to A52G U87C U100C, the self-cleavage was determined as 2.91.

Turning to A51G A59G U122A, the self-cleavage was determined as 1.25.

As for A51G A68G U87C, the self-cleavage came to 0.3.

As for A52G A63G A64G U102C A118G U122C, the self-cleavage amounted to 1.91.

Turning to A51G A68C A95G A126U, the self-cleavage stood at 1.07.

With A51G A55U A62U U139C, the self-cleavage turned out to be 1.63.

As to A51G A55G U127C, the self-cleavage is 1.05.

As for A51U A62G A68G G106A, the self-cleavage was determined as 0.01.

For the variant A51G A63G G80U, the self-cleavage was found to be 0.14.

Take A52C U87C A95G A135G: the self-cleavage is 1.44.

With A51U A78U U100C U103A U122C, the self-cleavage was found to be 0.13.
